# The whole screen tested about 220,000 compounds, of which about 5,700 (2.6%) were called active. Inconclusive results, whose numbers are uncertain, are shown with a selection of clear calls. The call rests on the fitted dose curve; in most records, active means well fitted inhibition curve with a large enough effect; inconclusive means small, poorly fitted or top-dose-only effect; inactive means no such curve, though single readings can be large or run the other way. Potencies beside an inconclusive call are fits to weak or partial responses and may not hold up.
# Molecular target: Lysine-specific demethylase 5B (Homo sapiens) (UniProt Q9UGL1)
# Experiment: Primary screen for KDM5B Histone Demethylases FDH-coupled qHTS; further: nearly all actives have a fitted effect of over 70% in size; on activity change, negative = inhibition: 0% is about no effect
# Conditions: FDH-coupled NADH fluorescence (FDH is formaldehyde dehydrogenase); activity change, negative = inhibition: at 57.7 µM (top of the series) unless noted
# Method in brief: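 qHTS format, multiple compound concentrations. Buffer 50 mM HEPES pH 7.5/0.01% Tween-20; 200 nM KDM5BΔAP final; 10 min compound preincubation; substrate-mix levels 12.5 µM peptide, 25 µM α-KG, 0.25 mM NAD⁺; 30 min RT; ΔRFU.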
# Potency means the concentration at half of the fitted maximal effect; tags describe the fitted curve by direction and shape.
# Chain of UniProt Q9UGL1 (Q9UGL1 whole entry, looked up): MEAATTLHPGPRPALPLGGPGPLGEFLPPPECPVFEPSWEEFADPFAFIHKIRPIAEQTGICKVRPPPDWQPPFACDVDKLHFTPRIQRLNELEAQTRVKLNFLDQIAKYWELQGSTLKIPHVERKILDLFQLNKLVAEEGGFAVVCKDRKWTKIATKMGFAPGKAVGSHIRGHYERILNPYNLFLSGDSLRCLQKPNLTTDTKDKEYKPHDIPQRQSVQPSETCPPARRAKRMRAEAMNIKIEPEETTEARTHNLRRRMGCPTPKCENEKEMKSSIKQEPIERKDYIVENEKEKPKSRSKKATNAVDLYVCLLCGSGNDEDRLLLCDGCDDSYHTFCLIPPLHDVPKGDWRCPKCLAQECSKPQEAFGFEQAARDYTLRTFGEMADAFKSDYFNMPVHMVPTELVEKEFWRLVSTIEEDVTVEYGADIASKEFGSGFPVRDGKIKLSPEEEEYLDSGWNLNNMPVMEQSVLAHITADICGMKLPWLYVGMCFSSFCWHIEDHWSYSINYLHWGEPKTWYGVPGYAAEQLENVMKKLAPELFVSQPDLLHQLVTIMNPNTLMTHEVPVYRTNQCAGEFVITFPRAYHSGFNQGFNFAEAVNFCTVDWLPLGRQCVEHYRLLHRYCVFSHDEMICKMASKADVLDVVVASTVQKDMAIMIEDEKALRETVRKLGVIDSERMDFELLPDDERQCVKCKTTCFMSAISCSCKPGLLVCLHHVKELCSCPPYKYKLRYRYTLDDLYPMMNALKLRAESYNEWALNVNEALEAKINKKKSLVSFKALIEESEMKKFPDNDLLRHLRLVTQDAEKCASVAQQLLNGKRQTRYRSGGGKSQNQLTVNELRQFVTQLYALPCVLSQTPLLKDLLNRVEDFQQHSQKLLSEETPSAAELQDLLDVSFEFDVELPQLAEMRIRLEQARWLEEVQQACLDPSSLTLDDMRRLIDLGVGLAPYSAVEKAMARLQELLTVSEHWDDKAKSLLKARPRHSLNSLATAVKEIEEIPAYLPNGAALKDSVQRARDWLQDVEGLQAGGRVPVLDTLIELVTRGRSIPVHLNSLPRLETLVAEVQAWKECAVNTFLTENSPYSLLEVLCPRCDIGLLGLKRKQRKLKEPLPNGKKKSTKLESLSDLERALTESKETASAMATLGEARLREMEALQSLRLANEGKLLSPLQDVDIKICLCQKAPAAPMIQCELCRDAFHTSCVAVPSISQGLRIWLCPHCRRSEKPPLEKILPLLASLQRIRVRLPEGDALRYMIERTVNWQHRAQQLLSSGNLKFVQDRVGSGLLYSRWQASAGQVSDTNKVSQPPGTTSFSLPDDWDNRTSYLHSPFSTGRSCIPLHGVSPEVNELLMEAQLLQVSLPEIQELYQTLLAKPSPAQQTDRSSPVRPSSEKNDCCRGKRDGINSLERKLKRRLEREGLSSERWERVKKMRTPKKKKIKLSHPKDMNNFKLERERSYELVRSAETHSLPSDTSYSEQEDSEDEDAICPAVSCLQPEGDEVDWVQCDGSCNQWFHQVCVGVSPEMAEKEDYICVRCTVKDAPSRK
Structure (SMILES),Potency,"activity change, negative = inhibition"
COc1ccc(-c2cc(C[C@H]3CNCC[C@H]3CC(=O)N3CCN(C(C)=O)CC3)no2)cc1,"inconclusive: 22.4 µM [inhibitor, partial curve, poor fit]",
CCC1CCC(N(C(=O)Cc2nc(-c3cccs3)oc2C)C2CC2)CC1 (stereo not drawn),"inconclusive: 28.2 µM [inhibitor, partial curve, poor fit]",
CC(C)(C)c1nc(C(=O)NCCc2ccc(Cl)cc2)n2ccccc12,"inconclusive: 56.2 µM [inhibitor, partial curve, poor fit]",
Cc1cccc(/C=C/c2ccc3ccccc3n2)c1,"inconclusive: 28.2 µM [inhibitor, partial curve, poor fit]",
CCc1ccc2oc(C(=O)NCc3ccc(C)cc3)cc(=O)c2c1,inactive,
c1ccc(-c2csc(CCNc3nccc(-c4ccccn4)n3)n2)cc1,"inconclusive: 31.6 µM [inhibitor, partial curve, poor fit]",
COc1ccc(NC(=O)c2ccco2)cc1NC(=O)c1cc(Br)ccc1Cl,,inconclusive: -34.2% [inhibitor]
CCCCn1c(CCC(=O)Nc2ccccc2C(C)(C)C)nc2c1c(=O)[nH]c(=O)n2CCC,inactive,
COc1ccccc1C(=O)Nc1ccc(S(=O)(=O)Nc2nc(C)cc(C)n2)cc1,"inconclusive: 25.1 µM [inhibitor, partial curve, poor fit]",
CCn1c(-n2nc(C)cc2C)nc2c1c(=O)n(CC(=O)C(C)(C)C)c(=O)n2C,inactive,
COc1ccccc1-c1nnc([C@H]2CCN(C3CCOCC3)C2)o1,"inconclusive: 31.6 µM [inhibitor, single point]",
O=C(O)c1ccc(-c2ccc(CNC3CCCCC3)o2)cc1,"inconclusive: 25.1 µM [inhibitor, partial curve, poor fit]",
CN(Cc1ccc(-c2ccc(Cl)cc2)o1)C(=O)CNC(=O)c1ccc(F)cc1,inactive,
O=c1c2c([nH]n1-c1nc3ccccc3[nH]1)CCCC2,"inconclusive: 28.2 µM [inhibitor, single point]",
COC(=O)CNc1nc(-c2ccccc2)c2cc(C)ccc2n1,"inconclusive: 22.4 µM [inhibitor, partial curve, poor fit]",
COc1ncc(-c2ccnc(-c3nnc(C)n3-c3ccccc3)c2)cn1,inactive,
CCOc1ccc(NC(=O)Cn2c(N3CCc4ccccc4C3)nc(C)cc2=O)cc1,"inconclusive: 14.1 µM [inhibitor, partial curve]",
COc1ccc(Nc2oc(/C=C/c3cc(OC)c(OC)c(OC)c3)nc2C#N)cc1,"inconclusive: 28.2 µM [inhibitor, partial curve, poor fit]",
Cc1c(C(=O)c2ccccc2)oc2cc(NC(=O)c3cccnc3)ccc12,inactive,
COC(=O)c1c(NC(C)=O)c2cc(NC3CCCCC3)cnc2n1CC1CCCO1 (stereo not drawn),"inconclusive: 25.1 µM [inhibitor, single point]",
Cc1ccc(-c2ccc3nnc(CNC(=O)C(C)c4ccccc4)n3n2)cc1 (stereo not drawn),"inconclusive: 15.8 µM [inhibitor, partial curve, poor fit]",
COc1cc(-c2nc(-c3ccccc3)c(-c3ccc(Br)cc3)[nH]2)cc(OC)c1O,"inconclusive: 15.8 µM [inhibitor, partial curve, poor fit]",
CCN1CCCC12Cc1ccccc1CN([S+](C)(=O)[O-])C2 (stereo not drawn),"inconclusive: 89.1 µM [inhibitor, partial curve]",

Structure (SMILES),Potency,"activity change, negative = inhibition"
COc1ccc(NC(=O)C2CCN(c3ccc(Sc4ccc(C)cc4)nn3)CC2)cc1,inactive,
CCC1CCCCN1CCCNC(=O)c1c(O)nc2cc(C)ccn2c1=O (stereo not drawn),"inconclusive: 20 µM [inhibitor, partial curve, poor fit]",
Cc1cc(C)cc(NC(=O)C(Nc2ccc3oc(C)nc3c2)c2ccccc2)c1 (stereo not drawn),"inconclusive: 22.4 µM [inhibitor, partial curve, poor fit]",
Cc1nc2sccn2c1C(=O)NC1CC(c2nnc(CN(C)C)n2C)C1 (stereo not drawn),"inconclusive: 25.1 µM [inhibitor, partial curve, poor fit]",
CCC(C)(CC)C(O)(C#CC[N+]1(Cc2ccccc2)CCCCC1)c1ccccc1 (stereo not drawn),inactive,
Cc1ccc(/C=C/c2onc(C)c2S(=O)(=O)N2CCC(C(=O)N3CCN(c4cc(C)ccc4C)CC3)CC2)cc1,"inconclusive: 5.62 µM [inhibitor, full curve, poor fit]",
O=C(Nc1cccc(Cl)c1)C1CCN(c2ncnc3nc[nH]c23)CC1,inactive,
Cc1ccc(Cl)cc1N1CCN(C(=O)COc2cc(=O)n(C)c3ccccc23)CC1,"inconclusive: 20 µM [inhibitor, partial curve, poor fit]",
CCN1CCC(N2CC[C@@H]3C(=O)NCCCCCCN(Cc4ccncc4)[C@@H]3C2)CC1,"inconclusive: 25.1 µM [inhibitor, partial curve, poor fit]",
COc1ccc(S(=O)(=O)N(CC(=O)N2CCN(C)CC2)c2ccccc2OC)cc1,inactive,
COc1ccc(CNc2cccc(C(=O)O)c2C)c(OC)c1,"inconclusive: 28.2 µM [inhibitor, single point]",
O=C(CCCc1nc2ccccc2s1)N1CCCC1c1ccc(F)cc1 (stereo not drawn),inactive,
Cc1ccc(-c2nnc(Nc3ccc(O)cc3)c3ccccc23)cc1S(=O)(=O)NC(C)(C)CO,"inconclusive: 2.82 µM [inhibitor, full curve, poor fit]",
CCOc1ccc(S(=O)(=O)N(CC(=O)Nc2ccc(OC)c(Cl)c2)c2ccccc2)cc1,inactive,
CCc1nnc(NC(=O)CN2CCN(c3cccc(C)c3C)CC2)s1,inactive,
CNC(=O)NC(=O)CN(Cc1ccc(C#N)cc1)Cc1cccc(F)c1,inactive,
Cc1cc(C)cc(C(=O)N2CCC(Oc3ccc(C(=O)N(C)C)cn3)CC2)c1,inactive,
COc1cccc(CN2CCNC(=O)C2CC(=O)N(C)C2CCOCC2)c1OC (stereo not drawn),"inconclusive: 39.8 µM [inhibitor, single point]",
O=C(NCc1ccc2c(c1)OCO2)c1cc(=O)c2ccccc2o1,inactive,
O=C(O)/C=C/c1cc(Cl)ccc1OCc1ccc(Cl)cc1,"inconclusive: 28.2 µM [inhibitor, single point]",
CCn1nc(C)c(CNC(=O)Nc2ccc(OC)cc2OC)c1C,inactive,
Cc1cc(C)c(Cn2cnc3nc4c(cc3c2=O)CCCC4)c(C)c1,"inconclusive: 17.8 µM [inhibitor, partial curve, poor fit]",
CC(NCc1ccccc1C#N)c1ccccc1F (stereo not drawn),inactive,

Structure (SMILES),Potency,"activity change, negative = inhibition"
O=C(CN1C(=O)c2ccccc2Sc2ncccc21)Nc1cccc(C(F)(F)F)c1,"inconclusive: 17.8 µM [inhibitor, partial curve, poor fit]",
COc1cccc(CNC(=O)C2=C(C)C(=O)OC23CCCCCC3)c1,"inconclusive: 15.8 µM [inhibitor, partial curve, poor fit]",
COc1ccc(-c2nc(C)nc3c2CN(C(C)=O)CC3)cc1,"inconclusive: 31.6 µM [inhibitor, partial curve]",
COC(=O)c1cc2ccccc2cc1OC(=O)Cc1cc(C(C)=O)ccc1OC,inactive,
CC(C)N1CC[C@@H]2[C@H]1C(=O)NC[C@H](CCC(=O)N1CCN(c3ccccn3)CC1)N2C,active: 31.6 µM,
Cc1ccc2oc(=O)cc(CN3CCN(Cc4ccccc4)CC3)c2c1,inactive,
CC(C)(C)c1ccc(CNCCN2CCCC2)cc1,inactive,
CC(=O)c1ccc(NS(=O)(=O)c2ccc3[nH]c(=O)[nH]c3c2)cc1,"inconclusive: 1.41 µM [inhibitor, full curve, poor fit]",
COc1ccc(S(=O)(=O)N(CC(=O)Nc2ccc(C)cc2)c2ccc(C)cc2)cc1OC,"inconclusive: 11.2 µM [inhibitor, partial curve, poor fit]",
CCOc1cc(C(=O)Nc2ccc3nc(N4CCN(C)CC4)cc(C)c3c2)cc(OCC)c1OCC,"inconclusive: 22.4 µM [inhibitor, partial curve, poor fit]",
COc1ccc(-c2ncc3c(n2)OCCN(C)C3=O)cc1OC,active: 28.2 µM,
N#Cc1nc(-c2ccccc2)oc1NCC(c1cccs1)N1CCOCC1 (stereo not drawn),"inconclusive: 28.2 µM [inhibitor, partial curve, poor fit]",
c1ccc(-c2cnc([C@@H]3COCCN3Cc3cnc[nH]3)[nH]2)cc1,inactive,
O=C/C=C/c1ccccc1[N+](=O)[O-],"inconclusive: 22.4 µM [inhibitor, partial curve, poor fit]",
Cc1cc(C)cc(NC(=O)C2CCN(c3nnc(-n4c(C)ccc4C)s3)CC2)c1,"inconclusive: 35.5 µM [inhibitor, single point]",
COc1ccc(F)cc1C(=O)CSc1nnc(C2CC2)n1C1CC1,inactive,
c1ccc2sc(N3CCN(Cc4cc5n(n4)CCCNC5)CC3)nc2c1,"inconclusive: 39.8 µM [inhibitor, partial curve, poor fit]",
CC(=O)Nc1ccc(-c2ccc(=O)n3c2[C@@H]2C[C@@H](CN(C(=O)NC4CCCCC4)C2)C3)cc1,"inconclusive: 25.1 µM [inhibitor, single point]",
O=C(NC1CCCC1)N1CC(Oc2ccc(-c3nc(-c4ccccc4)no3)cc2)C1,inactive,
Cc1ccc2c(n1)N(C)[C@H](CO)CCN(C(=O)Nc1ccccc1)C2,inactive,
Cc1c(NC(=O)c2ccco2)cccc1C(=O)N1CCn2nc(C(=O)O)cc2C1,"inconclusive: 6.31 µM [inhibitor, partial curve]",
Cc1cccc(Nc2nnc(-c3ccc(C)c(S(=O)(=O)N4CCOCC4)c3)c3ccccc23)c1,"inconclusive: 17.8 µM [inhibitor, partial curve, poor fit]",

# From PubChem BioAssay AID1347165 (National Center for Advancing Translational Sciences (NCATS), 2019)
